In all, about 48,000 compounds went through this assay and about 550 (1.1%) were called active. Inconclusive results (about 4%) are left out. No stated cut-off is given here; in the data, active means potency below about 15 µM; inconclusive means mostly about 16 µM to 33 µM; inactive means weaker than that. The list shows a part of the results.
What follows are compounds tested against Lysosomal acid glucosylceramidase (Homo sapiens) (UniProt P04062) (assay: Glucocerebrosidase). Settings: purified enzyme, resorufin glucoside fluorescence (screen aimed at inhibitors), 20 min; series mostly up to 77 µM.
UniProt P04062, sequence (P04062 whole entry, looked up): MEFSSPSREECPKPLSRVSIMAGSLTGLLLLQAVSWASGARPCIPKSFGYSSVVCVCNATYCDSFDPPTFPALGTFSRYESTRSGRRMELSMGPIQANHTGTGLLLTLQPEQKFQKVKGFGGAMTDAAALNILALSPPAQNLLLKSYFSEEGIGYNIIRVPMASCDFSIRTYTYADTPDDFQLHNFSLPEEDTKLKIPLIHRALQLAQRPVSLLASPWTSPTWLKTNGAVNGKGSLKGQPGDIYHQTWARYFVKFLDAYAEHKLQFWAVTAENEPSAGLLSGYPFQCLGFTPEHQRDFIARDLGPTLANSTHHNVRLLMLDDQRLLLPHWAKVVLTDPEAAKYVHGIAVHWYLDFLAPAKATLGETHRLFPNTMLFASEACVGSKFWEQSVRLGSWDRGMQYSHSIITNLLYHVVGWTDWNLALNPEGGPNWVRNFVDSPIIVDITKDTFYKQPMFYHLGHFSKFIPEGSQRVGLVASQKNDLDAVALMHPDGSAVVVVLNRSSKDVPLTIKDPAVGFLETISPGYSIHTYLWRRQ
Method in brief: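 Compounds titrated against 0.2 nM normal enzyme, 30 uM resorufin beta-D-glucopyranoside substrate, citrate/phosphate buffer with taurocholate and tween-20, pH 5.9. Reaction ran 20 min at room temperature; fluorescence (Ex 548/Em 600) gave AC50.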
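Further: the screen sought inhibitors.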
Potency means the concentration at half of the fitted maximal effect.

Potency, inactive:
CCC(=O)N(Cc1cc2cccc(C)c2[nH]c1=O)c1ccccc1OC > 76.9 µM
COc1ccc(NC(=O)CNS(=O)(=O)c2ccccc2)cc1Cl > 76.9 µM
C=CCn1c(SCC(=O)NC2CCCCC2)nnc1-c1sc(N)nc1C > 76.9 µM
COc1cccc(-c2cc(C(F)(F)F)nc(N3CCN(c4ccccc4)CC3)n2)c1 > 76.9 µM
Cc1cc(N2CCC(C)CC2)n2ncc(-c3ccccc3)c2n1
O=C1CC(=O)N(c2ccccc2)c2ccccc21 > 76.9 µM
Cc1nc(SCC#N)c2c3c(sc2n1)CCC3 > 76.9 µM
O=C(CSc1nc2c(c(=O)n1-c1ccc(Cl)cc1)SCC2)Nc1nccs1 > 76.9 µM
O=C(O)CCc1nc2cccnc2n1Cc1ccccc1 > 76.9 µM
COc1nc(N(C)C)nc(N(OC)S(=O)(=O)c2ccccc2Cl)n1 > 76.9 µM
COc1ccc(CC(=O)Nc2c3c(nn2-c2ccccc2C)CS(=O)C3)cc1 (centres undefined) > 76.9 µM
COc1ccc(C2=NOC(C(=O)NCCN3CCOCC3)C2)cc1 (centres undefined) > 76.9 µM
CCc1cc(C(=O)c2ccccc2OC)c(N)s1 > 76.9 µM
COc1ccc(-c2cn3ccccc3n2)cc1OC
CC(C)(C)c1cc(=O)n2c(C#N)c(C#N)nc2[nH]1 > 76.9 µM
CC(C(=O)Nc1nc2ccccc2[nH]1)N1C(=O)C2CC=CCC2C1=O (centres undefined) > 76.9 µM
Cc1nnc(SCCn2c(N3CCN(C)CC3)nc3c2c(=O)[nH]c(=O)n3C)s1 > 76.9 µM
O=C(C1CCCCC1)N1CCC(c2nc3c(nnn3Cc3c(F)cccc3Cl)c(=O)[nH]2)CC1 > 76.9 µM
CCOC(=O)N1CCN(C(=O)CCCn2c(=S)[nH]c3ccccc3c2=O)CC1 > 76.9 µM
CCC(=O)N1CCc2cc(Br)cc(S(=O)(=O)NCCN3CCCCC3C)c21 (centres undefined) > 76.9 µM
O=C(O)c1ccc(CSc2nnc(-c3ccncc3)n2CC2CCCO2)cc1 (centres undefined) > 76.9 µM
COc1cccc(-c2csc(NC(C)=O)n2)c1 > 76.9 µM
O=C(NCC1CCCO1)C1CC(c2ccc(Cl)c(Cl)c2)=NO1 (centres undefined) > 76.9 µM
Cc1cc(NC(=O)CSc2nc3sc4c(c3c(=O)n2C)CCCC4)no1 > 76.9 µM
Cn1c(=O)c2c(n(C)c1=O)=NC1(CCCCC1)ON=2 > 76.9 µM
Cn1c(C(=O)O)c(CC(=O)NCC2COc3ccccc3O2)c2ccccc21 (centres undefined) > 76.9 µM
CCN(C(=O)c1ccccc1Cl)c1ccccc1 > 76.9 µM
Cc1cc(C(=O)Nc2c(C)n(C)n(-c3ccccc3)c2=O)cs1 > 76.9 µM
CC(=O)Nc1cccc2c1[n+]([O-])c(C)c(C)[n+]2[O-] > 76.9 µM
Cc1cc(C)cc(N2C(=O)C3CC=CCC3C2=O)c1 (centres undefined) > 76.9 µM
COc1ccc(S(=O)(=O)N2Cc3ccccc3CC2C(=O)N2CCOCC2)cc1 (centres undefined) > 76.9 µM
COc1ncnc2sc(-c3ccccc3)cc12 > 76.9 µM
COC(=O)c1ccc(Oc2nc(N3CCCCC3)nc(N3CCOCC3)n2)cc1
O=C(Nc1nnc(-c2ccccc2Cl)o1)c1cccnc1 > 76.9 µM
CCC1(C)Cc2c(C#N)c(N)n(N)c(=S)c2CO1 (centres undefined) > 76.9 µM
CC#CCN(CC#CC)S(=O)(=O)c1ccc(-n2cnnn2)c(OC)c1 > 76.9 µM
O=C(NCCC1=CCCCC1)c1cnsn1 > 76.9 µM
Cc1ccc(CNC(=O)C2CNc3cc(C)ccc3O2)cc1 (centres undefined) > 76.9 µM
Cc1ccc(NC(=O)C2CCCN(S(=O)(=O)c3c(C)noc3C)C2)c(C)c1 (centres undefined) > 76.9 µM
Cn1c(SCC(=O)NCc2cccs2)nnc1-c1ccco1 > 76.9 µM
COc1ccc2c(c1)N(C)C(=O)CC(c1ccccc1)=N2 > 76.9 µM
CCOc1ccc(S(=O)(=O)N(CC(=O)N2CCc3ccccc32)Cc2ccco2)cc1 > 76.9 µM
O=C(N1CCOCC1)N1CCC(NC(=O)C23CC4CC(CC(C4)C2)C3)CC1 > 76.9 µM
O=C1CCCC2=C1C1(CCCC1)N=C(Nc1nc3ccccc3s1)N2 > 76.9 µM
CCCCn1c(SCC(=O)N2CCCC2)nc2c1c(=O)n(C)c(=O)n2C > 76.9 µM
Cc1sc(NC(=O)CSc2nnc(-c3ccccc3)o2)c(C#N)c1C > 76.9 µM
Cc1cc(C)c(C(N)=O)c(NCCc2ccccc2)n1 > 76.9 µM
COc1cc(-c2nnc(-c3ccco3)o2)ccc1OCc1ccccc1 > 76.9 µM
COC(=O)C1=C(C)NC(=O)C1(Nc1ccc(Cl)cn1)C(F)(F)F (centres undefined) > 76.9 µM
CC1CC(C)CN(CC(=O)Nc2ccc(S(N)(=O)=O)cc2)C1 (centres undefined) > 76.9 µM
Cn1nc(-c2ccc(C(=O)N3CCN(c4ccccc4)CC3)cc2)c2ccccc2c1=O > 76.9 µM
O=C(c1cc2c(s1)CCC2)N1C(=O)c2ccccc2S1(=O)=O > 76.9 µM
Cc1ccc(-c2ccc(=O)n(CC(=O)N3CCN(c4cccc(C)c4)C(C)C3)n2)cc1 (centres undefined) > 76.9 µM
Cc1cc(C)c2[nH]c(=O)c(C(c3nnnn3Cc3ccc4c(c3)OCO4)N3CCCC3)cc2c1 (centres undefined) > 76.9 µM
CCCCOC(=O)Cn1c(=N)n(CCN2CCOCC2)c2ccccc21 > 76.9 µM
O=C(c1ccc(F)cc1)c1cn[nH]c1-c1ccccc1O > 76.9 µM
CCCCn1c(=O)c(C(=O)OCC)c(O)c2ccccc21 > 76.9 µM
Cc1cc(C)c(S(=O)(=O)N(C)Cc2cnn(C)c2)c(C)c1 > 76.9 µM
O=C(NCC(=O)N(Cc1cccs1)C(C(=O)NC1CCCC1)c1ccco1)c1cccs1 (centres undefined) > 76.9 µM

— PubChem BioAssay AID360 (National Center for Advancing Translational Sciences (NCATS), 2006)
